Screen size: about 16,000 compounds; about 120 (0.75%) were called active. Another 4% or so got no clear call; they are omitted. Calls follow the shape of the dose curve; as a rule, active = well fitted inhibition curve with a large enough effect; inconclusive = small, poorly fitted or top-dose-only effect; inactive = no such curve, though single readings can be large or run the other way. The list shows a part of the results. A structure can be active in one record and inactive in another.
Target: Rap guanine nucleotide exchange factor 3 (Homo sapiens) (UniProt O95398)
Chain of UniProt O95398 (O95398 whole entry, looked up): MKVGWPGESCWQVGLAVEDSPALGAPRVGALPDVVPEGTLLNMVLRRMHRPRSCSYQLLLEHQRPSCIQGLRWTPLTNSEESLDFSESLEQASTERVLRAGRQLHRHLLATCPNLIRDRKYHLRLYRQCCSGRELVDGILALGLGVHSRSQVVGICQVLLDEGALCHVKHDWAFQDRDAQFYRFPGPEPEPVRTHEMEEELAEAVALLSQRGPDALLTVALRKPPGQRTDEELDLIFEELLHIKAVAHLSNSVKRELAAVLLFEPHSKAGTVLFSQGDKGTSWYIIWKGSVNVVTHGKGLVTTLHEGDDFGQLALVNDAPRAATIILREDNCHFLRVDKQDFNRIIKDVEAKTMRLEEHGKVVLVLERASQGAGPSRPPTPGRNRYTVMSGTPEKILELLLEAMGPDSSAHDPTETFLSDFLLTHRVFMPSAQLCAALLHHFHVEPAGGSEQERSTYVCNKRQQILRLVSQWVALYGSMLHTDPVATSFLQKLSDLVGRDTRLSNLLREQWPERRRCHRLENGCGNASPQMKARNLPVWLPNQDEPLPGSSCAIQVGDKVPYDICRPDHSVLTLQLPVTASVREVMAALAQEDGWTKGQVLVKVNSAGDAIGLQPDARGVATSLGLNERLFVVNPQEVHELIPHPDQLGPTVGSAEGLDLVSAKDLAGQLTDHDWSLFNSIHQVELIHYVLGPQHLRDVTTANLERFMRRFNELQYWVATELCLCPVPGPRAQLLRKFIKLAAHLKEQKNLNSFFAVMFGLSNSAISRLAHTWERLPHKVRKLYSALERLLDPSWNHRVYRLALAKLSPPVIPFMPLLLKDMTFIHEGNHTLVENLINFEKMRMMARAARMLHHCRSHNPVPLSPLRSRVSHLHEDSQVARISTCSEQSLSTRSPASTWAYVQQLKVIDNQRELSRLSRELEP
Experiment: Validation qHTS for antagonist of cAMP-regulated guanine nucleotide exchange factor 3 (EPAC1);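 also: plate controls were DMSO for no effect and ATA control for full effect; nearly all actives have a fitted effect of over 75% in size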
Conditions: EPAC1 Rap1B-BODIPY-GDP exchange, fluorescence; series mostly up to 150 µM; activity change, negative = inhibition: at the top concentration
Summary of the method: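 EPAC1 (100 nM) mixed with 250 nM RAP1B-BODIPY-GDP and 50 uM GDP; compounds in concentration series, 5 min at room temperature. Fluorescence (ex 480/em 540 nm) read every 5 min for 30 min; normalized to ATA control and DMSO.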

Activity change, negative = inhibition, inactive:
COc1ccc(O)c(CN2CCC3(CC2)c2ccccc2[C@@H](NC(=O)c2cccc(F)c2)[C@@H]3OC)c1 -7.6%
Cn1c(=O)c2[nH]c(Br)nc2n(C)c1=O 14.8%
CCCCC[C@H](O)/C=C/[C@@H]1[C@H]2C/C(=C/CCCC(=O)O)O[C@H]2C[C@H]1O 7.63%
NC(=O)[C@@H]1CCCN1C(=O)[C@H](Cc1cnc[nH]1)NC(=O)[C@@H]1CCC(=O)N1 13.6%
COc1ncc2nc(-c3ccccc3)c(=O)n(-c3ccccc3)c2n1 11.2%
O=C(c1cccc(F)c1)N1CCC2(CC1)CN(c1ccc(-c3ccccc3)cc1)C2 0.162%
COc1ccc(C2OC3C(CO)OC(n4cnc5c(=O)[nH]c(N)nc54)C3O2)cc1 (configuration not stated) 9.03%
C=CCOc1cc(Cl)ccc1C(=O)NCCN(CC)CC 21%
O=C(N[C@H]1CCC(=O)N([C@H](CSc2ccc(Br)cc2)Cc2ccccc2)CC1)OCc1ccccc1 -17.8%
O=C(COCCOCCOCC(=O)Nc1c(I)cc(I)c(C(=O)O)c1I)Nc1c(I)cc(I)c(C(=O)O)c1I -2.57%
CN1CCC(N(Cc2cccs2)c2ccccc2)CC1 29.5%
COC1=C(OC)C(=O)C(C/C=C(\C)CC/C=C(\C)CC/C=C(\C)CC/C=C(\C)CC/C=C(\C)CC/C=C(\C)CC/C=C(\C)CC/C=C(\C)CC/C=C(\C)CCC=C(C)C)=C(C)C1=O 11.6%
O=C(O)c1ccccc1Nc1cccc(OCc2ccc3ccccc3n2)c1 11.3% [at 75.8 µM]
CC(=O)c1ccc(C(=O)NCc2nc(-c3ccccc3NC(=O)c3cc(C)oc3C)oc2C)cc1 1.98%
CN(C)CC/C=C1/c2ccccc2COc2ccccc21 25.8%
CC(=O)NCCc1c(Cc2ccccc2)[nH]c2ccccc12
c1cncc(-c2ccc3ncnc(NCCN4CCOCC4)c3c2)c1 2.97%
COc1ccc2cc1Oc1ccc(cc1)C[C@H]1c3c(cc4c(c3Oc3cc5c(cc3OC)CCN(C)[C@@H]5C2)OCO4)CCN1C 10.1%
COCCNc1ncncc1-c1c(C)noc1C 19.7%
COc1cc(C(O)C(=O)O)ccc1O (configuration not stated)
Cc1ccc(C(=O)N(Cc2cc3cc4c(cc3nc2N2CCOCC2)CCC4)CC2CCCO2)cc1 (configuration not stated) -21%
Nn1cc(Br)c(=O)[nH]c1=O 13.7%
O=C(O)C(=O)Nc1cccc(C2=NN=N[N]2)c1 32.5%
COc1cccc(Cn2c(=O)cnc3cnc(Oc4ccccc4)nc32)c1 5.19%
CCNc1ncc2nc(-c3cn(C)c4ccccc34)c(=O)n(Cc3cccs3)c2n1 13%
O=C(c1cnn(-c2nccc(-c3ccccc3C(F)(F)F)n2)c1C1CC1)N1CCN(CCO)CC1 17.5%
C=C1CCC2C(C)(CO)C(O)CCC2(C)C1C/C=C1\C(=O)OCC1O (configuration not stated) 12.9%
COc1cc(=O)n2c(c1C(=O)NC(C)c1ccco1)CCN(C(=O)c1cccc(C)c1C)CC2 (configuration not stated) 1.1%
CCOC(=O)c1ccc(O)cc1 22.8%
COc1cccc(CNC(=O)c2c(OC)cc(=O)n3c2CCN(C(=O)c2ccc(Cl)cc2)CC3)c1 12.7%
COc1cccc(Cn2c(=O)c(-c3cn(C)c4ccccc34)nc3cnc(N4CCNCC4)nc32)c1 -26.1%
CC(=O)O[C@H]1Cc2ccccc2N(C(N)=O)c2ccccc21 10.8% [at 75.8 µM]
Cc1ccccc1C1(CC(=O)N2CC3CC4CC(C3)CC2C4)CC(=O)N(Cc2cccnc2)C1=O (configuration not stated) 10%
COc1ccccc1CNc1ccnc(-c2ccc(N(C)C)cc2)n1 -21%
COc1cccc(-c2nc(NC3CC3)c3ccccc3n2)c1 -3.29%
COc1ccc(CC(=O)c2ccc(O)cc2O)cc1 3.77%
O=C(NCC1Cc2cc(F)cc(-c3cccnc3)c2O1)c1cnn(-c2ccccc2)c1 (configuration not stated) -1.33%
CCC(O)CNC(=O)c1cnn(-c2ncc3c(n2)-c2ccc(OC)cc2CC3)c1C1CC1 (configuration not stated) 10.3%
COCc1c(C(=O)N2CCN(C(C)C)CC2)cnn1-c1nccc(-c2cc(C)sc2C)n1 -3.58%
CC(=O)OC1CC2C(C)(C)C(O)C=C[C@@]2(C)C2CC[C@@]3(C)C(c4ccoc4)OC(=O)C4OC43[C@]12C (some centres not stated) 2.42%
O=C(c1ccncc1)N1CCC[C@@]2(CCN(C(c3ccccc3)c3ccccc3)C2)C1 9.79%
O=C(C[n+]1ccccc1Cl)c1ccc(F)cc1 16.5%
COc1ccc(-n2ccc(-c3sc(NCc4cc(OC)c5c(c4)OCO5)nc3C)n2)cc1 -10.3%
Cc1cnc(CNc2nc(-c3cccc(NS(C)(=O)=O)c3)nc3ccccc23)cn1 0.762%
C[C@H](NC(=O)/C(C#N)=C/c1ccc(O)c(O)c1)c1ccccc1 11.1% [at 75.8 µM]
O=S(=O)(NCCNC/C=C/c1ccc(Br)cc1)c1cccc2cnccc12
C[S+](CC[C@H](N)C(=O)O)C[C@H]1O[C@@H](n2cnc3c(N)ncnc32)[C@H](O)[C@@H]1O (some centres not stated)
COCCNc1ncncc1-c1ccccc1OC -0.603%
Cc1ncc2c(c1CNC(=O)c1cncs1)CCN(C(=O)c1ccsc1)C2 16.1%
C=C1C2=CC(=O)OC(c3ccoc3)[C@]2(C)CCC1[C@]1(C)C=CC(=O)C(C)(C)C1CC(=O)OC (some centres not stated) -0.716%
COc1c(C2=CC(=O)N(C)C2=O)c2c(n1C)C(=O)c1ccccc1C2=O 29.9%
Cn1cc(-c2nc3cnc(OCc4ccccc4)nc3n(CCC#N)c2=O)c2ccccc21 9.75%
CCCCC1=NC2(CCCC2)C(=O)N1Cc1ccc(-c2ccccc2-c2nn[nH]n2)cc1 13.1%
Cc1ccc2nc(SCC(=O)NCC3Cc4cccc(-c5nc(C)cnc5C)c4O3)[nH]c2c1 (configuration not stated) 6.05%
COc1c2c(cc3occ(-c4ccc5c(c4)OCO5)c(=O)c13)OC(C)(C)C=C2 9.69%
CC(C)(C)c1cc(/C=C(\C#N)C(N)=S)cc(C(C)(C)C)c1O
COc1ccc(C(=O)NCCc2nnc3n2CCN(CC2CC=CCC2)CC3)cc1 (configuration not stated) 10%
Cc1cnc(CNc2cc(-c3ccccc3C(F)(F)F)ncn2)cn1 2.28%
Oc1cccc(O)c1O -18.6%
COC1=CC(=O)C[C@@H](C)[C@]12Oc1c(Cl)c(OC)cc(OC)c1C2=O
COc1ccc(/C=C/c2cc(OC)c(OC)cc2CC[N+](C)(C)C)cc1 21%
COc1cccc(-n2c(SC)nnc2C2CCN(CCC(C)c3ccc(C)o3)CC2)c1 (configuration not stated) 6.03%
